Laboratory results reported in PubChem BioAssay AID1346428 (National Center for Advancing Translational Sciences (NCATS), 2018).
Screen size: about 48,000 compounds; about 1,200 (2.5%) were called active. Not shown: some 2% with an inconclusive outcome.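 The calls were made as follows: active = activation of at least 60% and not above a set upper limit (about 1 call in 100 departs from these limits); inconclusive = activation of 40% to 60%, or above that upper limit; inactive = activation under 40%.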 Some of the results follow.

Each molecule was assayed against Probable G-protein coupled receptor 32 (Homo sapiens) (UniProt O75388) (assay: qHTS for Agonists of Human Resolvin D1 Receptor DRV1). Conditions: CHO-K1 GPR32 beta-arrestin PathHunter luminescence, 90 min; at 76.9 µM; active compounds read high; zero percent set by DMSO-only wells.
Outline: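 Readings come from a cell-based beta-arrestin complementation format: CHO-K1 GPR32 stable cells (2,500/well) treated 90 min with compounds, then beta-Gal substrate added for 1 h before chemiluminescence imaging.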
Also: 0% is about no effect.

Sequence of UniProt O75388 (O75388 whole entry, looked up): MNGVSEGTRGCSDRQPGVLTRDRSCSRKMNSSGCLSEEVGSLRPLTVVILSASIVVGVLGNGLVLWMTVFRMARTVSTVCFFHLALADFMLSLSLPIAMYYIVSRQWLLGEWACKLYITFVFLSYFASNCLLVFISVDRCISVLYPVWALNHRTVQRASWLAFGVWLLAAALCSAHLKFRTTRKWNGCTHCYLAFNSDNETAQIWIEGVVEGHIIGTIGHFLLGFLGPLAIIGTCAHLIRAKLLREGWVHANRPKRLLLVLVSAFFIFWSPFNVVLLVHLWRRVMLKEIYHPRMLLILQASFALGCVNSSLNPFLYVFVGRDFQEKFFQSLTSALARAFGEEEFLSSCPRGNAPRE

activation, active:
COc1cc2nc(SCC(=O)Nc3c(C)cc(C)cc3C)n3nc(CCn4c(C)nc5ccccc54)nc3c2cc1OC 83.2%, Cc1ccc(C)c(N2CCN(C(=O)C3CCCN(S(=O)(=O)c4cccc5nsnc45)C3)CC2)c1 (stereo not drawn) 66%, Cc1ccc(C(=O)Nc2cccc(O)c2)cc1S(=O)(=O)N1CCCCCC1 82.3%

activation, inactive:
CCOc1ccc(NC(=O)c2ccc3c(=O)n4nc(Nc5ccccc5C)sc4nc3c2)cc1 -2.82%, CCS(=O)(=O)c1ncc(N(Cc2ccccc2)Cc2ccco2)c(C(=O)Nc2ccc(C)c(C)c2)n1 -14.8%, COc1cccc(NC(=O)Cn2nnc(-c3nc(-c4ccccc4)no3)c2N)c1 4.11%, O=C(Cn1c(=O)oc2cc(Cl)ccc21)Nc1cccc(C(F)(F)F)c1 12.5%, Cc1nc2ncnn2c(C)c1CCC(=O)N1CCN(c2ccccc2)CC1 -0.582%, CCc1ccccc1NC(=O)Cn1c(=O)n(-c2ccc(C)cc2)c(=O)c2c1c1cc(C)ccc1n2C 8.26%, COc1ccc(OC)c(NC(=O)c2cc3cc(C)ccc3n2C)c1 -20.2%, CCCCCn1cc2c(c1-c1ccc(Br)cc1)c(=O)n(C)c(=O)n2C 2.74%, CCC(=O)Nc1ccc(CC)cc1-c1nc2ccccc2n(CC(=O)Nc2cccc(Cl)c2)c1=O -11.2%, CCCCc1nn2c(=O)cc(COC(=O)c3cccc(NC(=O)CCc4ccccc4)c3)nc2s1 -6.87%, CCOC(=O)c1ccc(NC(=O)/C(C#N)=C/c2ccc(OC)cc2)cc1 10.4%, CCc1ccc(-n2c(=O)c3c(C)c(C)sc3n(CC(=O)NCc3ccc(C)cc3)c2=O)cc1 -2.32%, N#C/C(=C/c1ccc(Cl)cc1)c1nc(-c2ccc(Br)cc2)cs1 -0.373%, O=S(=O)(NCc1nc2cccnc2n1Cc1ccccc1)c1ccc2c(c1)CCCC2 -23.7%, CCCN(CCC)C(=O)Cn1c(=O)n(-c2ccccc2)c(=O)c2c3c(sc21)CCCC3 -19.2%, COc1cc(/C=C(\C#N)c2nc3ccccc3[nH]2)cc(Cl)c1OCc1ccccc1Cl 9.24%, Cc1ccc(CSc2oc(-c3ccco3)nc2S(=O)(=O)c2ccc(C)cc2)cc1 -23.6%, O=C(CCC1N=C2c3ccccc3N=C(SCc3ccc(Cl)cc3)N2C1=O)NCCc1ccccc1 (stereo not drawn) -13.5%, Cc1ccc(NS(=O)(=O)c2ccc3[nH]c(=O)oc3c2)c(C)c1 -1.66%, Cc1c(NC(=O)Nc2ccc(Br)cc2F)sc2nc3n(c(=O)c12)CCC(C)CC3 (stereo not drawn) 15%, CCOC(=O)c1c(S(=O)(=O)NCC(=O)N2CCN(c3ccccc3)CC2)c(C)n(C)c1C 15.2%, COc1ccccc1CNC(=O)CCn1c(=O)c2ccccc2n(CC(=O)Nc2ccc(C)cc2Cl)c1=O 8.12%, Fc1ccc(C(NCCc2ccc(Cl)cc2)c2nnc(-c3ccccc3)o2)c(Cl)c1 (stereo not drawn) -42.2%, CC(=O)NCC(c1ccc2c(c1)OCO2)N1CCN(c2ccccc2)CC1 (stereo not drawn) 1.34%, CCCn1c2ccccc2c2cnn(CC(=O)N(C)c3ccccc3CC)c(=O)c21 -22.1%, CCc1cccc(C)c1NC(=O)c1cc(S(=O)(=O)NCc2ccccc2Cl)ccc1F 3.45%, COc1cccc(CNC(=O)c2ccc3c(c2)nnn3C2CCCC2)c1 -34.4%, Cc1ccc(N(CC(=O)NCc2ccc(F)cc2)S(=O)(=O)c2c(C)nn(C)c2C)cc1 1.51%, COc1ccc(-n2nc(C(=O)Nc3ccc(C)cn3)c3c4ccccc4n(C)c3c2=O)cc1 -8.49%, Cc1ccc(-n2cc(-c3ccccc3)nc2S(=O)(=O)CC(=O)Nc2ccc(F)cc2)cc1 -20.8%, CCCCSCCCNC(=O)c1cn(C)c2ccc(S(=O)(=O)N3CCCCC3)cc2c1=O -0.385%, COc1ccc(OC)c(NC(=O)Cn2ccc3ccccc3c2=O)c1 11.4%, COc1ccccc1C(=O)Nc1nnc(SCc2cc(=O)c3cc(Cl)ccc3[nH]2)s1 -1.14%, COc1ccc(NC(=O)c2c(-c3ccc(C)cc3)nnc3ccccc23)cc1Cl -4.66%, CCN(CC)C(=O)Cn1c(=O)n(-c2ccc(OC)cc2OC)c(=O)c2c(C)c(C(=O)N(CC)CC)sc21 -10.1%, O=C(CNC(=O)c1ccccc1F)OCc1cc(=O)n2ccsc2n1 -33.6%, CCN(CC)CCCCCCCCOC(=O)c1cc(OC)c(OC)c(OC)c1 5.38%, O=S(=O)(c1ccccc1)c1nc(-c2ccc(Cl)cc2Cl)oc1N1CCCCC1 -9.44%, Cc1nc(-c2ccc(Cl)cc2)sc1CCNC(=O)Cc1ccc(F)cc1 -5.09%, COc1ccc(C)cc1NC(=O)Cn1c(=O)cc(C)c2c(C)nn(C)c21 -4.2%, Cc1ccc(CN2CCN(C3CCN(C(=O)c4ccccc4)CC3)C(=O)C2=O)cc1 -9.62%, CCN(CC)CCCNC(=O)c1cn(CC)c2ccc(S(=O)(=O)N3CCc4ccccc4C3)cc2c1=O -4.73%, Cc1ccccc1CSc1nc2cc(C(=O)NC3CCCC3)ccc2c(=O)n1Cc1ccccc1 -8.89%, Cc1ccc(O)c(NC(=O)c2ccc(Br)c(S(=O)(=O)N3CCCCC3)c2)c1 -3.72%, CCN(Cc1ccccc1)C(=O)Cn1cc(S(=O)(=O)Cc2cccc(Cl)c2)c2ccccc21 -24.8%, Cc1cc2c(cc1C)NC(CC(=O)Nc1ccccc1)C(=O)N2 (stereo not drawn) -15.7%, O=C(CCCn1c(=O)c2cccn2c2ccc(F)cc21)NCc1ccc(Cl)cc1 -10.6%, CCc1ccc(NC(=O)C(=O)NCC(c2cccnc2)N2CCN(Cc3ccccc3)CC2)cc1 (stereo not drawn) -23.1%, CCCSc1ccc2nc(NC(=O)OC)[nH]c2c1 31.1%, COC(=O)CC1Oc2ccccc2-n2cc(-c3ccccc3)nc21 (stereo not drawn) 26.1%, CC1CCN(C(=O)CSc2c(C(C)C)cnc3c2c(=O)n(C)c(=O)n3C)CC1 -14.3%, Cc1ccc(-n2nc(CO)c(C(=O)NC(C)CCCc3ccccc3)n2)cc1C (stereo not drawn) -26.3%, CCOc1ccc(CNS(=O)(=O)c2ccc3[nH]c(=O)ccc3c2)cc1 24.5%, CCCCOc1ccc(CNC(=O)c2ccc(NC(=O)N3CCCCc4ccccc43)cc2)cc1 -5.25%, CC(=O)Nc1nonc1-c1nnc(SCC(=O)Nc2ccccc2)n1-c1ccccc1 -6.95%, CCC(=O)Nc1ccc2nc(SCCOc3ccccc3)sc2c1 23.4%, COC(=O)c1ccc(-n2c(CCC(=O)O)ccc2-c2ccc(C)cc2)cc1 -31.6%, CCOC(=O)Cn1c(=O)n(CC2CCCO2)c2nc(-c3cccc(C)c3)nc(C(N)=O)c21 (stereo not drawn) -2.53%, CCOc1ccccc1NC(=O)CCc1c(C)nn(-c2ccc(N3CCOCC3)nn2)c1C 9.21%, Cc1ccc(NC(=O)CSc2ncn[nH]2)cc1C -5.87%, CNS(=O)(=O)c1cn(CC(=O)Nc2cccc(OC)c2)cc1S(=O)(=O)NC -7.41%, Cc1c(Cl)cccc1NC(=O)c1noc2c1CCCC2 -12.2%, CCC(=O)N1c2ccccc2CC1C(=O)NCCN1CCN(c2cccc(C(F)(F)F)c2)CC1 (stereo not drawn) 10.8%, CCn1c(C)c(C)c2cc(C(=O)NCCCN3CCCCC3)ccc21 -3.22%, Cc1ccc(C)c(N2CCN(Cc3nnc(-c4ccc5c(c4)OCO5)o3)CC2)c1 -11.8%, Cn1c(=O)oc2cc(S(=O)(=O)NC(Cc3ccccc3)C(=O)NCc3ccc(F)cc3)ccc21 (stereo not drawn) -6.14%, COc1ccccc1OC(C)C(=O)Nc1c(C(=O)c2ccc(Cl)cc2)oc2ccccc12 (stereo not drawn) -2.39%, CCOc1ccc(NC(=O)CC2C(=O)N(c3ccccc3)C(=O)N2C2CCCCC2)cc1 (stereo not drawn) -8.98%, Cc1ccn2c(Nc3ccc4c(c3)OCO4)c(-c3ccc(N(C)C)cc3)nc2c1 -13.5%, COc1ccc(CNC(=O)c2nc(SC(C)C)ncc2Cl)cc1 -7.88%, COc1ccccc1CNC(=O)NCc1noc2ccc(C)cc12 -7.67%, O=c1c2cn[nH]c2nc(SCc2cccc(Br)c2)n1-c1ccc(Cl)cc1 -25.3%, Cc1nc2ccc(S(=O)(=O)CCC(=O)Nc3ccc(C)c(C)c3)cc2s1 -9.05%, CCOC(=O)c1c(-c2ccccc2)csc1NC(=O)c1cc(-c2ccc(Br)cc2)on1 -10.8%, CCOc1ccc(CCNC(=O)CCc2c(C)nc3c(-c4ccccc4)c(C)nn3c2C)cc1OCC -15.5%, COCCCNC(=O)c1sc2nc3n(c(=O)c2c1C)CCC3 5.27%, O=C(Cn1cc(S(=O)(=O)N2CCCC2)c(S(=O)(=O)N2CCCC2)c1)Nc1cccc(F)c1 11.5%, COc1ccccc1CNC(=O)CN1C(=O)COc2ccc(S(=O)(=O)N3CCC(C)CC3)cc21 -18.3%, C=CCC(CC=C)(CNC(=O)C(=O)Nc1cc(C)ccc1OC)c1ccc(OC)c(OC)c1 -10.5%, CCOc1ccc(C2=NC(c3ccc(OC)cc3)=Nc3ccc(Cl)cc3N2)cc1 -15.1%
